We go through 78 compounds from PubChem BioAssay (NCI).

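Cells were grown in 96-well plates and exposed to each compound for 48 hours at five concentrations; endpoints were interpolated linearly between bracketing concentrations, or set to the highest concentration if not reached. Abbreviation: GI50, concentration required for 50% inhibition of growth. TGI: concentration producing complete growth inhibition.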 Square brackets hold non-standard residues; d marks the D form. Peptide text beside a SMILES is read from it. pGlu = O=C1CC[CH](C(=O)O)N1

In the experiment the test system is NCI-H322M lung. Put plainly: inhibition of tumour cell growth, NCI panel, 48 h.
Consider `O=C(Oc1cccc(F)c1OC(=O)c1cccc(O)c1)c1cccc(O)c1`, for which the GI50 is 53.7 µM and the TGI is over 100 µM.

As to `CC(=O)N1C(OC(C)C)CC(C)N1c1ccccc1` (stereo not given), the TGI is over 10 µM.

For `C=C(CN1C(=O)CN(C)C1=O)c1ccc(C(=O)Nc2ccccc2N)cc1`, the GI50 was 12.2 µM and the TGI stood at 64 µM.

On to `O=[N+]([O-])c1ccc(C[P+](c2ccccc2)(c2ccccc2)c2ccccc2)cc1`, for which the TGI is over 100 µM.

`CCOC(=O)Nc1ccc2c(c1)/C(=N\NC(N)=S)c1ccccc1-2`: the GI50 was 12.5 µM and the TGI was determined as 41.6 µM.

In turn, `Cn1c(=O)c2c(nc3n(CCCCl)c(=O)ccn23)n(C)c1=O` gave a TGI of over 100 µM.

`O=C(NCCCCNc1cccccc1=O)OCc1ccccc1` gave a TGI of over 100 µM.

Compound `C=CCNC(=O)N(CCCCC(NC(C)=O)C(=O)NCc1ccccc1)Cc1ccccc1` (stereo not given) showed a TGI of over 100 µM.

Turning to `N#Cc1ccc(OCc2nc(N)nc(N)c2-c2ccc(Cl)c(Cl)c2)cc1`, the GI50 is 1.47 µM and the TGI is over 100 µM.

On to `Cc1ccc(Cc2n[nH]c(=O)n2Nc2ccccc2)cc1`, for which the TGI was over 100 µM.

For the compound `CCCCCCCCNc1cc2c3c(c1)CCCN3CCC2`, the GI50 is 8.42 µM and the TGI was found to be 22.2 µM.

For `CC(C)Oc1c(O)c2c3c(oc(=O)n3C=CC2c2ccccc2)c1OC(C)C` (stereo not given), the TGI was over 100 µM.

For the compound `C[C@]12C[C@H](CCCCCCNCCOC(=O)NCCCc3ccc(N(CCCl)CCCl)cc3)C3=C4CCC(=O)C=C4CCC3C1CC[C@@H]2O` (stereo not given in full), the GI50 is 20.2 µM and the TGI turned out to be 47.2 µM.

`Cc1ccc2c(c1)C(=O)N(N(C)C)CC(=O)N2`: the TGI was over 100 µM.

As for `COC(=O)/C=C\COCC1C2CCC(=O)C21` (stereo not given), the TGI is over 25 µM.

`C=CCN=c1sc2c(n1NC(=O)c1cc3ccc1CCc1ccc(cc1)CC3)C(=O)c1ccccc1C2=O`: the GI50 is 1.55 µM and the TGI came to 2.92 µM.

In turn, `C=C1C(=O)O[C@@H]2C[C@@H](C)[C@@H]3C=CC(=O)[C@@]3(C)[C@@H](O)[C@H]12` returned a TGI of 5.32 µM.

`COc1cc(C=O)cc(/C=N/n2c3ccccc3c3ccccc32)c1O` yielded a TGI of over 100 µM.

Compound `O=C1N(C2CCCCC2)CC12CCCCC2` gave a TGI of over 100 µM.

`CC[C@H](CCCC[C@H]1CC[C@@H]2CC(=O)C[C@H]12)OC` had a TGI of over 100 µM.

In turn, `CC1OC(OC2C(O)COC(OC3C(C)OC(OC4C(OC(=O)[C@]56CCC(C)(C)C[C@@H]5C5=CCC7[C@@]8(C)C[C@H](O)[C@H](OC9OC(CO)C(O)C(OC%10OC(CO)C(O)C(O)C%10O)C9O)[C@@](C)(CO)[C@@H]8CC[C@@]7(C)[C@]5(C)CC6)OCC(O)C4O)C(O)C3OC3OCC(O)(CO)C3O)C2O)C(O)C(O)C1O` (stereo not given in full) gave a TGI of 13.7 µM.

`CC1=C(c2ccccc2)C(c2ccccc2)=C(c2ccccc2)C2(c3ccccc3)C(=O)C(C)CN12` (stereo not given) came in with a TGI of over 100 µM.

Compound `COc1ccc2nc3cc(Cl)ccc3c(NCCNC(=O)Cn3c(=O)n(C)c(=O)c4c3nc3c(c(=O)n(C)c(=O)n3C)[n+]4[O-])c2c1` yielded a TGI of over 100 µM.

`O=c1[nH]nnc2c1ncn2C1OC(CO)C(O)C1O` (stereo not given): the GI50 was 11.1 µM and the TGI is over 100 µM.

`Brc1ccc(C2CC(c3cccc4ccccc34)=Nc3ccccc3S2)cc1` (stereo not given): the TGI is over 100 µM.

`Fc1ccc(Oc2nc3ccc(C(F)(F)F)cc3nc2-c2ccccc2)cc1` displayed a TGI of over 100 µM.

In the case of `O/N=C1/C(=C/c2ccc3c(c2)OCO3)CCCC1C(NO)c1ccc2c(c1)OCO2` (stereo not given), the TGI turned out to be 53.3 µM.

`C/C(=C(/C)c1ccc(O)cc1)c1ccc(O)cc1` had a TGI of over 100 µM.

Turning to `OC(Cc1ccncc1)C(Cl)(Cl)Cl` (stereo not given), the GI50 is over 100 µM and the TGI is over 100 µM.

Consider `c1coc(CNc2ncnc3[nH]ncc23)c1`, for which the TGI is over 100 µM.

Regarding `S=c1nc(N2CCCCC2)c2cn[nH]c2[nH]1`, the TGI is over 100 µM.

In turn, `COc1cc(C2=C(c3cc(OC)c4ccccc4c3OC)C(=O)c3ccccc3C2=O)c(OC)c2ccccc12` yielded a TGI of over 100 µM.

Consider `CN1C2=C(CC3=C1CC(C)(C)CC3=O)C(=O)CC(C)(C)C2`, for which the TGI was over 100 µM.

As for `CC[C@@H]1c2c(C#N)ncn2-c2cnc(Nc3ccc(C(=O)NC4CCN(C5CCN(CC6CC6)CC5)CC4)cc3OC)nc2N1C1CCCC1`, the GI50 was 0.872 µM and the TGI came out at 2.17 µM.

Compound `COc1ccc([C@H]2CC(=O)C[C@H](c3ccc(OC)cc3)C23C(=O)c2ccccc2C3=O)cc1` came in with a TGI of over 100 µM.

`O=c1ccn2n1Cc1ccccc1C2` gave a TGI of over 100 µM.

Compound `O=c1[nH]nc(-c2ccccc2)n1Nc1ccccc1` returned a TGI of over 100 µM.

Take `CCCCON(OC(=O)c1ccc2ccccc2c1)C(=O)c1ccccc1`: the GI50 is over 100 µM and the TGI is over 100 µM.

Consider `ClCc1cccc2c(CCl)cccc12`, for which the GI50 is 2.28 µM and the TGI stood at 7.69 µM.

`Cc1cc(-c2cccc3ccccc23)c(C#N)c(=S)n1C1OC(CO)C(O)C(O)C1O` (stereo not given) displayed a TGI of over 100 µM.

`CC(C)(C)[Si](C)(C)OCC1OC(n2cnc3c(N)ncnc32)CC1O` (stereo not given) came in with a TGI of over 100 µM.

With `NC(=O)C(=O)N/N=C1\C(=O)N(c2ccc(Cl)cc2Cl)C(=O)C1C(=O)Nc1ccc(Cl)cc1Cl` (stereo not given), the TGI is over 100 µM.

As for `CCNC(=O)C1CCCN1C(=O)C(CCCN=C(N)N)NC(=O)C(CC(C)C)NC(=O)C(CC(C)C)NC(=O)C(Cc1ccc(O)cc1)NC(=O)C(CO)NC(=O)C(Cc1c[nH]c2ccccc12)NC(=O)C(Cc1cnc[nH]1)NC(=O)C1CCC(=O)N1` (stereo not given) ([pGlu]HWSYLLRP-NHEt; configuration not given here), the GI50 is over 100 µM and the TGI is over 100 µM.

`NC(=O)Nc1ccc(S(=O)(=O)Nc2ccc(S(N)(=O)=O)cc2)cc1` displayed a TGI of over 100 µM.

`COc1c2cc(C(C)(C)C)cc1Cc1cccc(c1OCc1cccc([N+](=O)[O-])c1)Cc1cc(C(C)(C)C)cc(c1OC)Cc1cccc(c1OCc1cccc([N+](=O)[O-])c1)Cc1cc(C(C)(C)C)cc(c1OC)Cc1cccc(c1OCc1cccc([N+](=O)[O-])c1)C2` yielded a TGI of over 50 µM.

For `CC(=O)NC1C(OC[C@@H](CC(=O)N[C@@H](CC(=O)O)CC(=O)N[C@H](CC(=O)N[C@@H](CCCN)CC(=O)N[C@@H](CCCN)CC(=O)N[C@H](CC(N)=O)C(C)C)C(C)C)NC(=O)C[C@@H](N)C(C)C)OC(CO)C(O)C1O` (stereo not given in full), the GI50 was over 100 µM and the TGI is over 100 µM.

Compound `COc1ccc(/C=N/N=C(\N)NO)cc1O` registered a TGI of over 100 µM.

In turn, `C=CCOc1cc(NC(=S)c2ccoc2C)ccc1OC` showed a TGI of over 100 µM.

Compound `CCCc1cc(=O)oc2c3c(c4c(c12)OC(C)(C)CC4)O[C@@H](C)[C@H](C)[C@H]3O` showed a TGI of 34.6 µM.

For `CCc1cc2c(c3c1CCC3=O)CC1(Cc3ccc(C)cc3C1)C2` (stereo not given), the TGI is over 100 µM.

Turning to `Cc1cc2c(cc1C)OC(=O)CC2`, the TGI is over 100 µM.

Turning to `CC(=O)C1(Cc2cccc3ccccc23)S(=O)(=O)OCCOS1(=O)=O`, the TGI was determined as 43.4 µM.

`COc1cc(C(=O)/C=C/c2ccc(OCC#N)cc2)cc(OC)c1OC`: the TGI came out at 97.7 µM.

In the case of `O=C(O)CCN(CCCCN(CCC(=O)O)CCC(=O)O)CCC(=O)O`, the TGI is over 100 µM.

On to `O=C1N=C(SC(SC2=NC(=O)C3(NN2)c2ccccc2-c2ccccc23)=C(SC2=NC(=O)C3(NN2)c2ccccc2-c2ccccc23)SC2=NC(=O)C3(NN2)c2ccccc2-c2ccccc23)NNC12c1ccccc1-c1ccccc12`, for which the TGI was over 10 µM.

With `C=C1C(=O)O[C@H]2[C@H]1CC/C(COC(=O)CSCSCC(=O)OC/C1=C/CC[C@@]3(C)O[C@H]3[C@H]3OC(=O)C(=C)[C@@H]3CC1)=C\CC[C@@]1(C)O[C@@H]21`, the GI50 is 3.26 µM and the TGI turned out to be 10.5 µM.

The compound `O=C1Nc2ccccc2C1=Nc1cccc2ncccc12` yielded a TGI of over 100 µM.

As to `NS(=O)(=O)c1ccc(-n2nc(-c3ccc(Cl)cc3)cc2-c2cc(O)ccc2O)cc1`, the GI50 is 14.3 µM and the TGI stood at 31.7 µM.

`CC(=O)c1ccc2c(c1)c1c(C)c3c[n+](C)ccc3c(C)c1n2C` yielded a TGI of 77.3 µM.

Turning to `CCc1ccccc1NC(=O)C1=C(C)NC(C)=C(C(=O)Nc2ccccc2CC)C1c1ccccc1Cl`, the TGI was over 100 µM.

Regarding `CN(C)CCCNC(=O)c1c(O)c2ccccc2[nH]c1=O`, the TGI is over 100 µM.

In the case of `COc1cc(Br)c(C=Nc2cccc3cc(OC)c(OC)cc23)cc1OC`, the TGI is over 100 µM.

For the compound `C/C(N=NS(=O)(=O)c1ccccc1)=C1\C=CC=CN1O`, the TGI is over 100 µM.

With `Cc1ccc2nc3c(=O)[nH]c(=O)nc-3n(C)c2c1C`, the TGI was over 100 µM.

Turning to `CCN(Cc1cc(Nc2nc(C)cn3c(-c4cn[nH]c4)cnc23)sn1)C(C)(C)CO`, the GI50 is 0.0488 µM and the TGI was found to be 10.9 µM.

As to `CN1CCC2(CC1)ONC1=NCCN12`, the GI50 is 33.7 µM and the TGI was over 100 µM.

The compound `CC[C@@]1(O)C(=O)OCc2c1cc1n(c2=O)Cc2c-1nc1ccccc1c2/C=N\NC(=O)C(N)CO` (stereo not given in full) returned a TGI of over 100 µM.

For `CC(=O)OCCCC(NC(=O)OC(C)(C)C)C(=O)NC(CCCOC(C)=O)C(=O)NC(Cc1ccc([N+](=O)[O-])cc1)C(=O)NCC(=O)OCc1ccccc1` (stereo not given), the TGI is 34.8 µM.

Regarding `O=C1CSC(=S)N1`, the TGI is over 100 µM.

Compound `CCN(CC)CCNc1ccc2nnn3c4ccc(C)cc4c(=O)c1c23` returned a TGI of 21.3 µM.

`[N-]=[N+]=NC(CCl)c1cn([C@H]2C[C@H](O)[C@@H](CO)O2)c(=O)[nH]c1=O` (stereo not given in full) had a TGI of over 100 µM.

Turning to `CCOC(=O)c1nn2c(nc1=O)sc1ccc3ccccc3c12`, the TGI is over 100 µM.

Consider `N.N.N.N.[Co+3].[N-]=[N+]=[N-].[N-]=[N+]=[N-].[N-]=[N+]=[N-]`, for which the GI50 is over 100 µM and the TGI was over 100 µM.

The compound `N#CC(C#N)=C1c2ccccc2C(=NN)c2ccccc21` had a TGI of over 100 µM.

In the case of `O=C(CCCCCCNC(=O)c1cnc(N(c2ccccc2)c2ccccc2)nc1)NO`, the GI50 was 3.15 µM and the TGI is over 78.8 µM.

`COc1cccc(N2CCN(CC(=O)N3CCN(c4nnc(-c5ccc(Cl)cc5)c(-c5ccc(Cl)cc5)n4)CC3)CC2)c1`: the GI50 is over 100 µM and the TGI was over 100 µM.

As for `COc1ccc(OC)c(-c2nc3n(c2/C=C2/C(=O)Nc4ccccc42)CCS3)c1`, the TGI is over 100 µM.

With `C[C@H](NC(=O)[C@@H](C)N)[C@H](Oc1ccc2c(cnn2-c2ccc(F)cc2)c1)c1ccc2c(c1)OCCO2`, the GI50 was 3.2 µM and the TGI was found to be 11.8 µM.
